The results in this text go back to paper PMC6901440.

Protein sequences, listed by entry. Tags and fused reporters are not part of them. Lines headed by an entry give the natural chain unless they say otherwise; changes in a name come on top.
UniProt P10415: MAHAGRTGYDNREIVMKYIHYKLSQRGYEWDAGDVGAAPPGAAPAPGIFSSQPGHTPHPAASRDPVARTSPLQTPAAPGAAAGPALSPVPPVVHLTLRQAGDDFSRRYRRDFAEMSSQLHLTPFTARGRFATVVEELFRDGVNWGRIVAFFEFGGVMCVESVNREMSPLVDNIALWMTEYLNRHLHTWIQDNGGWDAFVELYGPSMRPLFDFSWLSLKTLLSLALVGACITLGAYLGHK

Experiment [1] has as its target Bcl-2 (endogenous, THP-1 cells) (human (endogenous in THP-1)) (UniProt P10415). Put plainly: co-IP; endogenous proteins; Bcl-2 immunoprecipitated from THP-1 lysates; cells basal or LPS 50 ng/ml 5 h + nigericin 5 uM 30 min (Fig. 1b); PMA treated cells with or without TNFa 20 ng/ml, 100 nM Smac mimetic, 20 uM z-VAD-FMK for 3 h (Fig. 5d); lysis buffer 20 mM HEPES pH 7.4, 0.5% Triton X-100, 0.5% CHAPS, 10% glycerol; washed eight times.

Experiment [2] deals with Bcl-2 (transfected, HEK-293T) (UniProt P10415). The experiment in a line: co-IP; HEK-293T cells transfected with Flag-MLKL or Flag-MLKL L176A and Bcl-2 or Bcl-2 G145A; Bcl-2 antibodies used to immunoprecipitate; Flag-MLKL detected by blot.
For experiment [3], the target named is Bcl-2 G145A (transfected, HEK-293T) (UniProt P10415). Described as above.

Where a chain is given by its changes, count along the chain named. Numbers in names are those of the source. These are yes or no findings as the source states them, for the method shown. In cells and extracts the contact can be indirect. Some results given as binding are weak or reduced against the parent protein; the word gives no strength. For part of these data: Sequences can lack the tags named with a protein.

B1: gasdermin D (endogenous, THP-1 cells) (protein, UniProt P57764 1-484)
chain: MGSAFERVVRRVVQELDHGGEFIPVTSLQSSTGFQPYCLVVRKPSSSWFWKPRYKCVNLSIKDILEPDAAEPDVQRGRSFHFYDAMDGQIQGSVELAAPGQAKIAGGAAVSDSSSTSMNVYSLSVDPNTWQTLLHERHLRQPEHKVLQQLRSRGDNVYVVTEVLQTQKEVEVTRTHKREGSGRFSLPGATCLQGEGQGHLSQKKTVTIPSGSTLAFRVAQLVIDSDLDVLLFPDKKQRTFQPPATGHKRSTSEGAWPQLPSGLSMMRCLHNFLTDGVPAEGAFTEDFQGLRAEVETISKELELLDRELCQLLLEGLEGVLRDQLALRALEEALEQGQSLGPVEPLDGPAGAVLECLVLSSGMLVPELAIPVVYLLGALTMLSETQHKLLAEALESQTLLGPLELVGSLLEQSAPWQERSTMSLPPGLLGNSWGEGAPAWVLLDECGLELGEDTPHVCWEPQAQGRMCALYASLALLSGLSQEPH
For the molecule B1, the binding entry in experiment [1] was “binds”.

B2: Flag-MLKL (protein, UniProt Q8NB16 1-471)
chain: MENLKHIITLGQVIHKRCEEMKYCKKQCRRLGHRVLGLIKPLEMLQDQGKRSVPSEKLTTAMNRFKAALEEANGEIEKFSNRSNICRFLTASQDKILFKDVNRKLSDVWKELSLLLQVEQRMPVSPISQGASWAQEDQQDADEDRRAFQMLRRDNEKIEASLRRLEINMKEIKETLRQYLPPKCMQEIPQEQIKEIKKEQLSGSPWILLRENEVSTLYKGEYHRAPVAIKVFKKLQAGSIAIVRQTFNKEIKTMKKFESPNILRIFGICIDETVTPPQFSIVMEYCELGTLRELLDREKDLTLGKRMVLVLGAARGLYRLHHSEAPELHGKIRSSNFLVTQGYQVKLAGFELRKTQTSMSLGTTREKTDRVKSTAYLSPQELEDVFYQYDVKSEIYSFGIVLWEIATGDIPFQGCNSEKIRKLVAVKRQQEPLGEDCPSELREIIDECRAHDPSVRPSVDEILKKLSTFSK
For B2, the binding entry in experiment [2] and in experiment [3] was “binds” throughout.

B3: MLKL (endogenous, THP-1 cells) (protein, UniProt Q8NB16 1-471)
chain: B2 chain
Consider B3, for which the binding entry in experiment [1] is recorded as “binds”.

B4: Flag-MLKL L176A (protein, UniProt Q8NB16 1-471)
chain: B2 chain with L176A
Turning to B4, the binding entry in experiment [2] and in experiment [3] was “binds” throughout.
